# Measured values taken from the supplement of paper PMC3334620.
# The full ranking holds about 33,000 sequences; the median of “E-score (-0.5 to 0.5)” is about -0.017, and the highest 2% start at about 0.3. This is one part of the list.
# Molecular target: T1, Sut1 (UniProt P53032)
# T1 sequence: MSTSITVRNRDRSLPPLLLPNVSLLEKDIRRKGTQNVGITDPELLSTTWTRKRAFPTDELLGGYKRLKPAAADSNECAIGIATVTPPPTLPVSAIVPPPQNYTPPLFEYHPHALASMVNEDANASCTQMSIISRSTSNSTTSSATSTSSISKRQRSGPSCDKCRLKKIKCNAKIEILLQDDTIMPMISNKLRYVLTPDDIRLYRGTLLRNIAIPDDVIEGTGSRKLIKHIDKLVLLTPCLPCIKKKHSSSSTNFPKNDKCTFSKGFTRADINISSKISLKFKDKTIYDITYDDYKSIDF
# Test: PBM E-score (8-mer binding enrichment) (E-score (-0.5 to 0.5)); higher = stronger / more preferred TF binding; most listed sequences are background and not binding sites
# Conditions: protein concentration: 200 nM; construct: GST-full length
# Description: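 Universal 'all 10-mer' protein binding microarrays (Agilent AMADID 015681) probed with GST-tagged S. cerevisiae TFs (full-length or DBD) made by in vitro transcription/translation (PURExpress), about 100-200 nM. Bound TF was detected with fluorescent anti-GST. Each ungapped 8-mer (which stands for itself and its reverse complement) is scored by the PBM enrichment score (E-score), a modified Wilcoxon-Mann-Whitney statistic from -0.5 to +0.5, computed with the Universal PBM Analysis Suite. Scale: above 0.35 generally sequence-specific binding.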
row,Sequence,PBM E-score
1,AACCACAC,0.0208
2,TATCAATA,0.0986
3,GTACCTTA,0.149
4,CAATGCAA,-0.0619
5,GCCTAACA,-0.0562
6,ATGATACC,0.0548
7,AACGCTGC,-0.192
8,AGGGAGAT,-0.354
9,AAGTGAAC,-0.0118
10,CAAATGTG,0.127
11,GTGCTCCA,-0.191
12,ACAAAAGC,0.0815
13,GCACACAA,0.112
14,AAGTGTCA,-0.177
15,GCTCGTAA,-0.0601
16,ACTCGGCA,0.018
17,GCCACTAA,-0.00433
18,AATCCAAG,0.0535
19,TACCTATA,0.00304
20,TCCGGACA,0.415
21,AAGTAAAA,0.113
22,CGCCGCCA,0.0467
23,CCGTACCC,-0.18
24,AAAACCTA,0.146
25,AAGCCGAA,0.182

row,Sequence,PBM E-score
1,ACTGACTA,-0.136
2,GTTTAATA,0.215
3,ACCTCTAT,-0.0477
4,GATCGCGA,0.0749
5,TGACGAAA,0.0812
6,TACGGAGA,0.32
7,CTGTACAA,0.0205
8,CCGGTAAG,0.2
9,TAACGCGA,-0.072
10,GCGCTCTA,0.00585
11,ATGGGGAG,-0.155
12,GGTTTCGA,-0.16
13,TATCTAAA,0.0819
14,AAAAAGCC,0.272
15,AGATTGTA,0.131
16,TACACGGA,0.335
17,GCCACAGC,-0.254
18,ATCTGTAG,-0.0133
19,AAGCGACG,-0.161
20,AACTCAAA,0.0515
21,CAGGGCAC,-0.258
22,GCAGTACC,-0.0523
23,AGTAATAG,0.063
24,AGGGGCCA,-0.322
25,CTCGACTA,-0.174

row,Sequence,PBM E-score
1,CGATGGCC,-0.111
2,GTAGGTGA,-0.194
3,CGTAAGCC,-0.065
4,TCAGATGA,0.0689
5,CCCACTAG,-0.248
6,GTGAGCTA,-0.0193
7,AAAACGTC,0.0907
8,CACATCGC,-0.243
9,TATGTACA,0.0901
10,GTCAAAAC,0.0199
11,GATAGTAA,0.145
12,AGGCCCGC,-0.133
13,AAAGCCAC,0.111
14,CTCTGAAG,-0.133
15,CATGAGAC,-0.0808
16,ACTGCCTC,-0.21
17,CAAGACCG,0.0398
18,AACCGTCT,-0.234
19,TGGCCTAA,-0.22
20,ATCATCCA,-0.0546
21,TGCATCAA,0.0695
22,GGCGCATA,-0.156
23,ATATAAAG,0.177
24,CTGGAGAC,-0.209
25,TGACTGCA,-0.221

row,Sequence,PBM E-score
1,AAAGGACG,0.00144
2,AAAAATTG,0.122
3,TGGCATAA,0.214
4,CGACATAG,-0.154
5,GGGGCGAC,-0.168
6,CGTACGCA,-0.00898
7,TCCTGCAA,-0.11
8,ACATCGCC,-0.112
9,CGTTCTTA,-0.0311
10,CAATGCCA,0.00632
11,AACCATTC,0.0582
12,TAGAAGAA,0.104
13,CGCCATAC,-0.239
14,AGTTTTAT,0.211
15,CCGAAGTA,0.203
16,CAAATAAC,0.169
17,AATCAACT,0.183
18,AGTTACAC,0.0598
19,GCAGGATA,-0.181
20,AGTTGGAT,0.192
21,CGACATAC,-0.0133
22,GACGGCAC,-0.312
23,ATATAGAG,0.0735
24,CAGAATCG,0.0859
25,ACCTCCTA,-0.289

row,Sequence,PBM E-score
1,AAGCGGGT,-0.14
2,ATTCCCTC,-0.233
3,GAACAGAA,0.168
4,CCTTAAGA,-0.0607
5,GTAAAGTA,0.134
6,GCACGACC,-0.248
7,CCAATGTA,-0.0169
8,AACCAGAG,-0.168
9,CAAGTGTC,-0.124
10,CCGGTTAA,0.141
11,CGTTACTC,-0.00241
12,AGCCGGAC,0.342
13,CGCAGGTA,0.0561
14,CGCCCCCC,-0.414
15,GGGGAGAA,-0.147
16,GCCTTCCA,-0.124
17,AATTGGCC,-0.134
18,ATTTATAC,0.286
19,GACCCGAC,0.0578
20,TATCATGA,0.0115
21,ACCTAGAA,0.107
22,CCAAACGG,-0.0241
23,ACCTTATA,0.0666
24,AAAGTTTG,0.153
25,ATACAGCG,-0.102

row,Sequence,PBM E-score
1,CTTATAAC,0.221
2,GCTCAGTA,0.0603
3,ACGAGTAA,0.105
4,CTACCCAC,-0.294
5,CTCGGCCA,-0.0126
6,ACAATTCA,0.165
7,ACACCTGC,-0.156
8,ATGTATTC,0.171
9,TCCTGTAA,0.0385
10,ACTGCTGG,-0.175
11,CGTGCACC,-0.207
12,GATCACCC,-0.0925
13,CTGCGAGA,-0.244
14,ACCTACTG,-0.215
15,CGGAATTC,0.323
16,CTTATTAC,0.224
17,ACCGTGCC,-0.128
18,ACGTACTG,-0.0657
19,CCCGGGCG,0.0238
20,CACGTAGG,-0.136
21,ACGTGCTC,-0.0287
22,ATACTAAC,0.0793
23,ACGGCTCA,-0.0994
24,CAGAAGCA,0.0517
25,CGCAGTGC,-0.23

row,Sequence,PBM E-score
1,TCAACAGA,-0.00677
2,ACGTATCG,-0.029
3,AGCGAGAA,-0.00317
4,AAAAGATA,0.207
5,CCATCCCG,-0.243
6,CTTATCCA,0.082
7,ACCATGGC,-0.0281
8,GATTTGCA,0.115
9,AACCGATA,0.116
10,TATCTCAA,0.242
11,AACTCCTG,-0.099
12,CGAGACCG,0.0521
13,GGCAATAC,-0.0369
14,GCCTTCGA,-0.0899
15,AAGCAGAC,-0.143
16,AGTGGAAA,0.0173
17,ACATCTAG,0.0823
18,CTTCATAC,0.185
19,ATCAACAC,0.0956
20,CTGAAAGA,0.0382
21,CCGTGCGA,-0.00599
22,TCTAGACA,-0.0621
23,ATCGGGCC,-0.259
24,CTGTCGCC,-0.302
25,GCGAGTCC,0.172

row,Sequence,PBM E-score
1,CTTGAGCC,-0.292
2,AATCAACA,0.228
3,CGCCTGGA,-0.255
4,GAGCTCTA,0.0385
5,ACGTAAGA,-0.00585
6,GACTCGAA,0.0185
7,TAATTCAA,0.257
8,GATGGCGC,-0.246
9,CGTGGATC,-0.154
10,CTGTCAAA,0.00742
11,ATAGGCAT,-0.0157
12,ACTACTAT,0.253
13,GTCACACA,-0.0272
14,CATCTAAG,-0.107
15,AGACCTAC,-0.036
16,TCGATAAA,0.127
17,CACTTTGG,-0.115
18,GCCTTCAC,-0.0368
19,AGGGGTTA,-0.273
20,AAATGGGA,0.0266
21,CAAATTGG,0.083
22,AGACGGCC,-0.259
23,GCGAAAAA,0.177
24,AACATGCA,0.0784
25,AGACCCTG,-0.364

row,Sequence,PBM E-score
1,GGTTTTAA,0.27
2,TAATCGAA,0.0525
3,CCTAGCTC,-0.0813
4,CAAGATGG,-0.155
5,CCACTGCA,-0.275
6,GGCTTGAA,-0.0304
7,CCAACCCG,-0.172
8,GGTGTGAA,0.0943
9,CCTAATAG,-0.0595
10,ACATTAGA,0.138
11,CGTTGCAG,-0.136
12,GTGCTTTA,-0.00213
13,CCTTTGCC,-0.117
14,AATTCGTA,0.114
15,GAGAGCGA,-0.141
16,CACACATG,-0.0887
17,CCGGTTGC,0.123
18,AATGGCGA,0.248
19,ACACCGTG,-0.201
